Source: PubChem BioAssay AID504832 (National Center for Advancing Translational Sciences (NCATS), 2011)
Among all 310,000 compounds or so, about 18,000 (5.8%) were called active. Inconclusive results, whose numbers are uncertain, are shown with a selection of clear calls. The call rests on the fitted dose curve; in most records, active means well fitted inhibition curve with a large enough effect; inconclusive means small, poorly fitted or top-dose-only effect, or another doubt; inactive means no such curve, though single readings can be large or run the other way. No potency is given beside an inconclusive call; the fits are too rough.

test: Primary qHTS for delayed death inhibitors of the malarial parasite plastid, 48 hour incubation; conditions: P. falciparum luciferase growth in erythrocytes; series mostly up to 28.7 µM
Method in brief: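 Erythrocytes infected with P. falciparum carrying an integrated firefly luciferase reporter (2% hematocrit, 0.1% parasitemia final) were exposed to compounds in RPMI 1640 with 0.5% Albumax at 37 C, 5% CO2. Growth inhibition was scored as reduced luminescence.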
Potency means the concentration at half of the fitted maximal effect; tags describe the fitted curve by direction and shape.

Which Potency does the source give for Cc1cc(=O)[nH]c(N2CCCNCC2)n1 here?
Its Potency is active: 11.7 µM.

With CCOc1ccc(NC(=O)COc2ccc(C(=O)NC(C)c3ccc(S(N)(=O)=O)cc3)cc2OC)cc1 (stereo not drawn) as the compound, how does the Potency read?
The Potency was active: 11.7 µM.

For CC(=O)Nc1ccc(/C(C)=N/Nc2nc(Nc3ccccc3)nc(N3CCOCC3)n2)cc1, which Potency is on record?
The Potency was active: 2.08 µM.

For CCOC(=O)C(NC(=O)c1ccc(OC)cc1)(OCC1(CC)COC1)C(F)(F)F (stereo not drawn), which Potency is on record?
Its Potency is active: 13.1 µM.

For CCn1c2ccccc2c2nnc(SCC(=O)c3c(N)n(C)c(=O)n(C)c3=O)nc21, which Potency is on record?
The Potency was inconclusive [inhibitor, partial curve, poor fit].

Which Potency does the source give for COc1ccc(CN(CC(O)COc2cccc3[nH]cc(C)c23)C(C)(C)C)cc1 (stereo not drawn) here?
The Potency was inconclusive [inhibitor, single point].

With COc1ccc(N2CCN(C(=O)CN3C(=O)NC(C)(C4CC4)C3=O)CC2)cc1 (stereo not drawn) as the compound, how does the Potency read?
Its Potency is inconclusive [inhibitor, partial curve, poor fit].

For CCOC(=O)[C@H]1[C@H]2COc3ccc(OC)cc3[C@@H]2N2C(=O)c3cc(F)c(F)cc3NC(=O)[C@@]12C, which Potency is on record?
The Potency was inconclusive [inhibitor, single point].

Which Potency does the source give for CCOC(=O)C(C)/C(C)=N/NC(=O)c1cc2ccccc2cc1O (stereo not drawn) here?
Its Potency is inconclusive [inhibitor, single point].

With COC(=O)c1ccc(N=C2S/C(=C\c3cc(C)n(-c4cccnc4)c3C)C(=O)N2C)cc1 as the compound, how does the Potency read?
The Potency was inconclusive [inhibitor, partial curve].

Which Potency does the source give for NC(=S)Nc1ccc(C(F)(F)F)cc1Cl here?
Its Potency is inconclusive [inhibitor, single point].

With N=c1c(C(=O)NCC2CCCO2)cc2c(=O)n3ccccc3nc2n1Cc1ccc(Cl)cc1 (stereo not drawn) as the compound, how does the Potency read?
Its Potency is active: 10.4 µM.

For CN1CCN(S(=O)(=O)c2ccc(NC(=O)c3ccc(Br)s3)cc2)CC1, which Potency is on record?
The Potency was inconclusive [inhibitor, partial curve].

Which Potency does the source give for O=C(CCCCCNC(=O)c1ccccc1)N=Nc1c(O)[nH]c2c(Br)cc(Br)cc12 here?
The Potency was active: 11.7 µM.

For Oc1ccc(/C=N/NC(=S)N2CCOCC2)cc1, which Potency is on record?
The Potency was “inactive”.

For O=C(Nc1ccccc1)N1CCn2c(nc3ccccc32)C1, which Potency is on record?
Its Potency is inconclusive [inhibitor, single point].

For COc1cccc(-n2c(SCC(=O)NCCc3ccccc3)nnc2-c2ccoc2C)c1, which Potency is on record?
The Potency was inconclusive [inhibitor, single point].

With CCC(=O)N1CCN(c2ccc(NC(=O)c3ccco3)cc2Cl)CC1 as the compound, how does the Potency read?
The Potency was inconclusive [inhibitor, single point].

With O=[N+]([O-])c1cccc(CN2CCCCCC2)c1 as the compound, how does the Potency read?
The Potency was “inactive”.

With CCC1(c2ccc(Cl)cc2)NC(=O)N(Cc2ccc(C(=O)OC)cc2)C1=O (stereo not drawn) as the compound, how does the Potency read?
Its Potency is inconclusive [inhibitor, single point].

For O=C(/C=C/c1ccccc1[N+](=O)[O-])NCc1ccccc1Cl, which Potency is on record?
The Potency was “inactive”.

For O=C(Nc1ccc2c(c1)nc1n2CCN(C2CCCCC2)C1)c1ccco1, which Potency is on record?
The Potency was inconclusive [inhibitor, single point].

Which Potency does the source give for CC(C)OC(=O)/C(=C\c1cccc2ccccc12)NC(=O)c1ccccc1 here?
Its Potency is inconclusive [inhibitor, single point].

For Cc1ccc(Cn2c(=N)n(CC(O)c3ccco3)c3ccccc32)cc1 (stereo not drawn), which Potency is on record?
The Potency was inconclusive [inhibitor, single point].

Which Potency does the source give for CC(C)(C)c1ccc(/C=C2/SC(N3CCCC3)=NC2=O)cc1 here?
The Potency was inconclusive [inhibitor, partial curve, poor fit].

For COCc1c(CCl)cnc(C)c1O, which Potency is on record?
Its Potency is “inactive”.

For N#C/C(=C\c1ccccc1)C(=O)Nc1cccnc1, which Potency is on record?
Its Potency is “inactive”.

Which Potency does the source give for Cc1ccc(C)c(OCC(O)CN2CCc3ccccc3C2)c1C (stereo not drawn) here?
The Potency was active: 9.28 µM.

Which Potency does the source give for O=C(Nc1cccnc1)c1cc(F)cc(F)c1 here?
The Potency was “inactive”.

For COc1ccccc1C(=O)O[C@H]1[C@H](Cc2ccccc2)NS(=O)(=O)[C@H]2C[C@@H]3C=C[C@]12O3, which Potency is on record?
The Potency was inconclusive [inhibitor, partial curve].

For O=C(CN1c2cccc3cccc(c23)S1(=O)=O)NCc1ccc2c(c1)OCO2, which Potency is on record?
Its Potency is inconclusive [inhibitor, partial curve, poor fit].

For COc1cccc(C(=O)c2c(C)c(CCC#N)n3ccccc23)c1OC, which Potency is on record?
Its Potency is “inactive”.

For CS(=O)(=O)Nc1ccc(S(=O)(=O)N2CCOCC2)cc1, which Potency is on record?
Its Potency is inconclusive [inhibitor, full curve, poor fit].

For Cc1ccc(C)c(N2CCN(C(=O)c3cccn4c(=O)c5sccc5nc34)CC2)c1, which Potency is on record?
Its Potency is inconclusive [inhibitor, partial curve, poor fit].

With CCC(=O)NNC(=S)NC(=O)c1ccc(C)cc1 as the compound, how does the Potency read?
The Potency was “inactive”.

For CCC(=O)c1ccc(OCC(=O)Nc2cccc(S(=O)(=O)N(C)c3ccccc3)c2)cc1, which Potency is on record?
The Potency was inconclusive [inhibitor, single point].

For CCN(CC)C1CCN(Cc2c(C(=O)N3CCCCCCC3)nc3ccc(Cl)cn23)C1 (stereo not drawn), which Potency is on record?
The Potency was inconclusive [inhibitor, single point].

For CC(O)CN1C(=O)C(CC(=O)Nc2ccc(Cl)cc2)SC1=Nc1ccccc1 (stereo not drawn), which Potency is on record?
The Potency was inconclusive [inhibitor, single point].

With COc1ccc(Nc2cc(C)c3ccccc3n2)cc1 as the compound, how does the Potency read?
Its Potency is “inactive”.

Which Potency does the source give for O=C(Nc1ccc(F)cc1F)Nc1csc2ccccc12 here?
The Potency was active: 4.65 µM.

For Cc1cccc(C)c1NC(=O)CCCN1C(=O)C(c2ccccc2)Oc2cccnc21 (stereo not drawn), which Potency is on record?
The Potency was “inactive”.

Which Potency does the source give for Cc1ccc(S(=O)(=O)N2CCCCC2)cc1NC(=O)c1cccs1 here?
Its Potency is inconclusive [inhibitor, partial curve, poor fit].

With Cc1onc(-c2c(Cl)cccc2Cl)c1C(=O)N1CCN(Cc2ccccc2)CC1 as the compound, how does the Potency read?
The Potency was inconclusive [inhibitor, partial curve, poor fit].

Which Potency does the source give for Oc1c(CNc2ccccc2)cc(COCc2ccccc2)c2cccnc12 here?
Its Potency is active: 1.17 µM.

With CCSc1nnc(-c2sc3nnc(-c4ccccc4)c(-c4ccccc4)c3c2N)o1 as the compound, how does the Potency read?
The Potency was inconclusive [inhibitor, full curve].

Which Potency does the source give for O=C(c1cc(S(=O)(=O)N2CCN(c3ccccc3)CC2)ccc1Cl)N1CCCC(C(F)(F)F)C1 (stereo not drawn) here?
The Potency was inconclusive [inhibitor, single point].

For Cc1ccc(NC(=O)c2cc3ccccc3cc2O)cc1, which Potency is on record?
Its Potency is inconclusive [inhibitor, partial curve, poor fit].

Which Potency does the source give for COc1ccc(CN2CC(=O)N(c3cc(Cl)ccc3OC)C2=S)cc1OC here?
The Potency was active: 9.28 µM.

For O=C(c1ccc2c(c1)OCO2)N1CCC2(CC1)Oc1ccc(F)cc1C(=O)C21CC(c2ccccc2)=NO1 (stereo not drawn), which Potency is on record?
Its Potency is active: 13.1 µM.

Which Potency does the source give for C(=C\c1ccccc1)/C=N/Nc1ccc2nncn2n1 here?
The Potency was inconclusive [inhibitor, single point].

Which Potency does the source give for Cc1ccccc1OCCNC(=S)Nc1ccccc1 here?
Its Potency is inconclusive [inhibitor, partial curve, poor fit].

Which Potency does the source give for O=C1c2ccc(Br)cc2C(=O)N1c1ccc(Cl)cn1 here?
The Potency was inconclusive [inhibitor, full curve].

With NC(=O)CSc1nnc(NC(=O)c2ccc(S(=O)(=O)N3CCCCC3)cc2)s1 as the compound, how does the Potency read?
Its Potency is inconclusive [inhibitor, full curve, poor fit].

Which Potency does the source give for Cc1ccc(OCCC(=O)N(CCC(C)C)c2c(N)n(Cc3ccccc3)c(=O)[nH]c2=O)cc1 here?
The Potency was active: 10.4 µM.

For Cc1cc(N/N=C/c2ccc(Cl)cc2Cl)nc(NCc2ccccc2)n1, which Potency is on record?
Its Potency is active: 0.329 µM.

Which Potency does the source give for CCn1ncc(C2=NOC(C(=O)Nc3cccc(O)c3)C2)c1C (stereo not drawn) here?
The Potency was inconclusive [inhibitor, single point].

Which Potency does the source give for C/C(=N\NC(=O)c1cc2ccccc2cc1O)c1ccc2c(c1)OCO2 here?
The Potency was active: 6.57 µM.

Which Potency does the source give for COc1ccc(-c2nn(-c3ccccc3)cc2C2CC(c3cccs3)=NN2C(=O)CCC(=O)O)cc1 (stereo not drawn) here?
The Potency was inconclusive [inhibitor, partial curve, poor fit].

For COc1ccc(/C=N/NC(=O)CCn2c3ccccc3c3ccccc32)cc1OC, which Potency is on record?
The Potency was inconclusive [inhibitor, partial curve, poor fit].

Which Potency does the source give for CCC(CC)NC(=O)COC(=O)CCC(=O)c1ccc(Cl)cc1 here?
Its Potency is “inactive”.

With CCOC(=O)C1=C(O)/C(=C/c2ccc(OCC(=O)O)c(OCC)c2)SC1=Nc1ccc(OC)cc1 as the compound, how does the Potency read?
The Potency was inconclusive [inhibitor, single point].

Which Potency does the source give for O=C(CN1C(=O)NC(c2ccccc2)(c2ccccc2)C1=O)c1c[nH]c2ccccc12 here?
The Potency was active: 11.7 µM.

For COc1cc(-c2nnc(NC(=O)c3ccco3)o2)cc(OC)c1OC, which Potency is on record?
Its Potency is “inactive”.

For Cc1ccc(/C(N)=N/OC(=O)c2cccc(Cn3cc(C(F)(F)F)ccc3=O)c2)cc1, which Potency is on record?
Its Potency is inconclusive [inhibitor, partial curve, poor fit].

Which Potency does the source give for CCOc1ccc(NS(=O)(=O)c2ccc(C(=O)NCC(c3ccco3)N3CCCC3)cc2)cc1 (stereo not drawn) here?
Its Potency is inconclusive [inhibitor, single point].

For c1ccc(CN2CCN(C3=Nc4cccc5cccc3c45)CC2)cc1, which Potency is on record?
Its Potency is inconclusive [inhibitor, single point].

With COc1ccc(CC(=O)OCC(=O)N2N=C(c3ccccc3)CC2c2ccc(OC)cc2)cc1 (stereo not drawn) as the compound, how does the Potency read?
Its Potency is inconclusive [inhibitor, single point].

With Cc1ccc(C(=O)NN2C(=O)/C(=C/c3cn(C)c4ccccc34)SC2=S)cc1 as the compound, how does the Potency read?
Its Potency is “inactive”.
